According to the supplement of paper PMC4967469:
IC50 is the fitted dose that halves viability relative to control wells, and lower means more sensitive; a fit beyond the top or the lowest dose is shown as a bound at that dose. AUC sums up the same curve from the lowest dose to the 256-fold higher top dose; values near 1 show little effect. For some assays here: An inferred top dose is not printed in the source and was worked back from the curve model. For some assays here: Drugs with an entry number were screened twice under separate entries, and the two screens often disagree.

How the values were obtained:
Assay in all cases: Viability of human cancer cell lines after 72 h of drug (GDSC screen)
ZM-447439 = compound: COc1cc2c(Nc3ccc(NC(=O)c4ccccc4)cc3)ncnc2cc1OCCCN1CCOCC1 [ZM-447439]; details: top dose inferred
Description: (§1)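 Human cancer cell lines in 384-well plates, medium with 10% serum, drug for 72 h over a 256-fold dose range (nine 2-fold or five 4-fold steps up to the top dose). Adherent lines were fixed and stained with the nucleic acid dye Syto60, suspension lines read with resazurin; signal relative to control wells, capped at 0 and 100%. One two-parameter sigmoid per drug and line, fitted in a mixed model over all curves with the slope shared within a line.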

PD-0332991 = compound: CC(=O)c1c(C)c2cnc(Nc3ccc(N4CCNCC4)cn3)nc2n(C2CCCC2)c1=O [PD-0332991]
Description: as §1

AZD6244 = compound: Cn1cnc2c(F)c(Nc3ccc(Br)cc3Cl)c(C(=O)NOCCO)cc21 [AZD6244]; details: screen: GDSC drug entry 1062
Description: as §1

Cell Line | AUC (ZM-447439) | IC50 (ZM-447439) [µM] | AUC (PD-0332991) | IC50 (PD-0332991) [µM] | AUC (AZD6244) | IC50 (AZD6244) [µM]
8-MG-BA (glioma, adherent, top dose 4 µM) | 0.89 | > 4 | 0.982 | > 4 | 0.969 | > 4
42-MG-BA (glioma, adherent, top dose 4 µM) | 0.866 | 3.97 | 0.969 | > 4 | 0.911 | > 4
201T (lung adenocarcinoma, adherent, top dose 4 µM) | 0.938 | > 4 | 0.812 | 2.84 | 0.974 | > 4
639-V (bladder, adherent, top dose 4 µM) | 0.972 | > 4 | 0.943 | > 4 | 0.969 | > 4
647-V (bladder, adherent, top dose 4 µM) | 0.978 | > 4 | 0.987 | > 4 | 0.987 | > 4
697 (lymphoblastic leukaemia, suspension, top dose 4 µM) | 0.662 | 0.635 | 0.259 | 0.0608 | 0.99 | > 4
786-0 (kidney, adherent, top dose 4 µM) | 0.933 | > 4 | 0.76 | 1.31 | 0.907 | > 4
5637 (bladder, adherent, top dose 4 µM) | 0.802 | 1.75 | 0.988 | > 4 | 0.982 | > 4
8305C (thyroid, adherent, top dose 4 µM) | 0.946 | > 4 | 0.826 | 3.48 | 0.794 | 2.52
8505C (thyroid, adherent, top dose 4 µM) | 0.883 | > 4 | 0.855 | 3.49 | 0.974 | > 4
23132-87 (stomach, adherent, top dose 4 µM) | 0.972 | > 4 | 0.939 | > 4 | 0.986 | > 4
A3-KAW (B-cell lymphoma, suspension, top dose 4 µM) | 0.993 | > 4 | 0.992 | > 4 | 0.976 | > 4
A4-Fuk (B-cell lymphoma, suspension, top dose 4 µM) | 0.829 | 2.64 | 0.855 | 3.42 | 0.707 | 0.988
A101D (melanoma, adherent, top dose 4 µM) | 0.869 | > 4 | 0.769 | 1.85 | 0.945 | > 4
A253 (head and neck, adherent, top dose 4 µM) | 0.968 | > 4 | 0.954 | > 4 | 0.989 | > 4
A375 (melanoma, adherent, top dose 4 µM) | 0.778 | 1.34 | 0.666 | 0.657 | – | –
A388 (skin, adherent, top dose 4 µM) | 0.917 | > 4 | 0.828 | 2.97 | 0.974 | > 4
A427 (non-small cell lung carcinoma, adherent, top dose 4 µM) | 0.872 | 3.89 | 0.907 | > 4 | 0.88 | > 4
A431 (skin, adherent, top dose 4 µM) | 0.928 | > 4 | 0.895 | > 4 | 0.932 | > 4
A498 (kidney, adherent, top dose 4 µM) | 0.824 | > 4 | 0.947 | > 4 | 0.832 | > 4
A673 (rhabdomyosarcoma, adherent, top dose 4 µM) | 0.98 | > 4 | 0.89 | 3.79 | 0.982 | > 4
A2780 (ovary, semi-adherent, top dose 4 µM) | 0.982 | > 4 | 0.957 | > 4 | 0.985 | > 4
AGS (stomach, adherent, top dose 4 µM) | 0.915 | > 4 | 0.792 | 1.61 | 0.945 | > 4
ALL-PO (lymphoblastic leukaemia, suspension, top dose 4 µM) | 0.663 | 0.733 | 0.774 | 1.66 | 0.837 | 2.91
ALL-SIL (T-cell leukaemia, suspension, top dose 4 µM) | 0.735 | 1.04 | 0.88 | 3.15 | 0.988 | > 4
AM-38 (glioma, semi-adherent, top dose 4 µM) | 0.977 | > 4 | 0.882 | > 4 | 0.978 | > 4
AMO-1 (haematopoietic neoplasm, suspension, top dose 4 µM) | 0.932 | > 4 | 0.983 | > 4 | 0.991 | > 4
ARH-77 (myeloma, suspension, top dose 4 µM) | 0.985 | > 4 | 0.978 | > 4 | 0.97 | > 4

Cell Line | AUC (ZM-447439) | IC50 (ZM-447439) [µM] | AUC (PD-0332991) | IC50 (PD-0332991) [µM] | AUC (AZD6244) | IC50 (AZD6244) [µM]
ASH-3 (thyroid, adherent, top dose 4 µM) | 0.972 | > 4 | 0.866 | 3.58 | 0.824 | 2.37
ATN-1 (T-cell lymphoblastic leukaemia, suspension, top dose 4 µM) | 0.691 | 0.825 | 0.855 | 2.85 | 0.806 | 1.87
EW-16 (Ewing sarcoma, adherent, top dose 4 µM) | 0.76 | 1.47 | 0.585 | 0.431 | – | –
G-402 (soft tissue, adherent, top dose 4 µM) | 0.864 | > 4 | 0.753 | 1.75 | – | –
OVCAR-5 (ovary, adherent, top dose 4 µM) | – | – | 0.632 | 0.624 | 0.979 | > 4
OVISE (ovary, adherent, top dose 4 µM) | – | – | 0.956 | > 4 | 0.897 | > 4
PCI-4B (head and neck, adherent, top dose 4 µM) | – | – | 0.587 | 0.428 | 0.955 | > 4
PCI-6A (head and neck, adherent, top dose 4 µM) | – | – | 0.912 | > 4 | 0.954 | > 4
PL4 (pancreas, adherent, top dose 4 µM) | – | – | 0.983 | > 4 | 0.987 | > 4
RCC-ER (kidney, adherent, top dose 4 µM) | – | – | 0.949 | > 4 | 0.986 | > 4
RERF-LC-KJ (lung adenocarcinoma, adherent, top dose 4 µM) | – | – | 0.987 | > 4 | 0.987 | > 4
RKN (ovary, adherent, top dose 4 µM) | – | – | 0.78 | 1.74 | 0.98 | > 4
RT4 (bladder, adherent, top dose 4 µM) | 0.983 | > 4 | 0.968 | > 4 | – | –
SBC-3 (small cell lung carcinoma, adherent, top dose 4 µM) | – | – | 0.899 | > 4 | 0.989 | > 4
SF295 (glioma, adherent, top dose 4 µM) | – | – | 0.77 | 1.64 | 0.953 | > 4
SISO (cervix, adherent, top dose 4 µM) | – | – | 0.988 | > 4 | 0.988 | > 4
SK-CO-1 (large intestine, adherent, top dose 4 µM) | – | – | 0.856 | 2.93 | 0.989 | > 4
SK-HEP-1 (liver, adherent, top dose 4 µM) | 0.883 | 3.82 | 0.792 | 1.68 | – | –
SKN-3 (head and neck, adherent, top dose 4 µM) | – | – | 0.825 | 2.99 | 0.972 | > 4
SNU-182 (liver, adherent, top dose 4 µM) | – | – | 0.977 | > 4 | 0.986 | > 4
SNU-423 (liver, adherent, top dose 4 µM) | – | – | 0.929 | > 4 | 0.983 | > 4
SW626 (ovary, adherent, top dose 4 µM) | – | – | 0.93 | > 4 | 0.982 | > 4
SW1271 (small cell lung carcinoma, adherent, top dose 4 µM) | – | – | 0.958 | > 4 | 0.979 | > 4
SiHa (cervix, adherent, top dose 4 µM) | – | – | 0.984 | > 4 | 0.987 | > 4
TOV-112D (ovary, adherent, top dose 4 µM) | – | – | 0.826 | 2.45 | 0.973 | > 4
TYK-nu (ovary, adherent, top dose 4 µM) | – | – | 0.656 | 0.699 | 0.936 | > 4
UWB1.289 (ovary, adherent, top dose 4 µM) | – | – | 0.975 | > 4 | 0.965 | > 4
